The assay relates to Trichoderma virens ATCC 9645. In words: growth yield (OD600) with compound + IPBC relative to untreated control; higher = less growth inhibition. The settings on record: compound concentration: 100 uM, IPBC concentration: 200 ng/ml. In a few lines:
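Growth appears as means of duplicate screens, relative to the control containing neither agent. To obtain it, OD600 was read on a BioTek EL800 at 40 h and 72 h. The cultures were 100 μl aliquots in 96-well plates at 30 °C, holding Trichoderma virens ATCC 9645 spores at 15,000 spores ml^−1 in potato dextrose broth, library compounds at 100 μM final, and, in some wells, a biocide at 200 ng ml^−1.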

SMILES strings stand for the structures. Structures can show the parent of a compound that is named as a salt. ± gives the standard error. In all, about 1,300 compounds went through this assay and about 130 (10%) showed an effect of 50% or more. This is a selection; strong and weak results do not stand in their true shares.

In the supplement of paper PMC8007513 one finds growth yield data, which are given here for 27 molecules.

Regarding `COC(=O)Nc1nc2ccc(SC(C)C)cc2[nH]1` [Methiazole] + CCCCNC(=O)OCC#CI [3-iodo-2-propynyl butylcarbamate (IPBC)], the growth yield is, setting by setting: (40 h) 67.7 ± 20%; (72 h) 89.4 ± 12%.

`CN(C)CCOc1ccc(/C(=C(/CCCl)c2ccccc2)c2ccccc2)cc1` [Toremifene] + CCCCNC(=O)OCC#CI [3-iodo-2-propynyl butylcarbamate (IPBC)]: the growth yield was determined as 3.49 ± 0.95% (40 h) and 3.15 ± 0.42% (72 h).

For `CCN1CCN(C(=O)N[C@@H](C(=O)N[C@@H]2C(=O)N3C(C(=O)O)=C(CSc4nnnn4C)CS[C@H]23)c2ccc(O)cc2)C(=O)C1=O` [Cefoperazone dihydrate] + CCCCNC(=O)OCC#CI [3-iodo-2-propynyl butylcarbamate (IPBC)], the growth yield (40 h) was found to be 98.6 ± 3% and the growth yield (72 h) is 98.3 ± 1.1%.

In the case of `CC1=Nc2ccc(Cl)cc2S(=O)(=O)N1` [Diazoxide] + CCCCNC(=O)OCC#CI [3-iodo-2-propynyl butylcarbamate (IPBC)], the growth yield by setting is: (40 h) 97.4 ± 4%; (72 h) 100.8 ± 0.94%.

Consider `Oc1ccc(OCc2ccccc2)cc1` [Monobenzone] + CCCCNC(=O)OCC#CI [3-iodo-2-propynyl butylcarbamate (IPBC)], for which the growth yield runs as follows: (40 h) 50.7 ± 6.5%; (72 h) 63 ± 4.3%.

In the case of `C[C@H]1C[C@H]2[C@@H]3CCC4=CC(=O)C=C[C@]4(C)[C@@]3(F)[C@@H](O)C[C@]2(C)[C@@]1(O)C(=O)CO` [Betamethasone] + CCCCNC(=O)OCC#CI [3-iodo-2-propynyl butylcarbamate (IPBC)], the growth yield amounted to 99.8 ± 14% (40 h) and 101 ± 7.3% (72 h).

Consider `CCCCOC(=O)c1ccc(N)cc1` [Butamben] + CCCCNC(=O)OCC#CI [3-iodo-2-propynyl butylcarbamate (IPBC)], for which the growth yield came out at 53.53 ± 0.16% (40 h) and 70.7 ± 3.4% (72 h).

In the case of `CCCC(C)(COC(N)=O)COC(=O)NC(C)C` (stereo not drawn) [Carisoprodol] + CCCCNC(=O)OCC#CI [3-iodo-2-propynyl butylcarbamate (IPBC)], the growth yield (40 h) is 84.8 ± 5.1% and the growth yield (72 h) turned out to be 92.7 ± 5.5%.

Turning to `CCC1(C)CC(=O)NC(=O)C1` [Bemegride] + CCCCNC(=O)OCC#CI [3-iodo-2-propynyl butylcarbamate (IPBC)], the growth yield by setting is: (40 h) 93.2 ± 1.4%; (72 h) 95.86 ± 0.84%.

As for `N=C(N)NC(=O)c1nc(Cl)c(N)nc1N` [Amiloride hydrochloride dihydrate] + CCCCNC(=O)OCC#CI [3-iodo-2-propynyl butylcarbamate (IPBC)], the growth yield (40 h) was 80.4 ± 2.9% and the growth yield (72 h) is 88.8 ± 3.2%.

`O=C1NCN(c2ccccc2)C12CCN(CCCC(c1ccc(F)cc1)c1ccc(F)cc1)CC2` [Fluspirilen] + CCCCNC(=O)OCC#CI [3-iodo-2-propynyl butylcarbamate (IPBC)]: the growth yield reads like this: (40 h) 99.4 ± 6.3%; (72 h) 118 ± 4.2%.

For the molecule `Cc1cc(C2CCCCC2)n(O)c(=O)c1` [Ciclopirox ethanolamine] + CCCCNC(=O)OCC#CI [3-iodo-2-propynyl butylcarbamate (IPBC)], the growth yield (40 h) worked out at 3.49 ± 0.32% and the growth yield (72 h) was 2.83 ± 0.32%.

On to `COc1cc(C(=O)NS(=O)(=O)c2ccccc2C)ccc1Cc1cn(C)c2ccc(NC(=O)OC3CCCC3)cc12` [Zafirlukast] + CCCCNC(=O)OCC#CI [3-iodo-2-propynyl butylcarbamate (IPBC)], for which the growth yield reads like this: (40 h) 115.3 ± 0.32%; (72 h) 108 ± 2%.

As for `NS(=O)(=O)c1cc(C(=O)O)c(NCc2ccco2)cc1Cl` [Furosemide] + CCCCNC(=O)OCC#CI [3-iodo-2-propynyl butylcarbamate (IPBC)], the growth yield worked out at 95 ± 7% (40 h) and 102 ± 3.8% (72 h).

Take `NC(=O)c1ncn([C@@H]2O[C@H](CO)[C@@H](O)[C@H]2O)n1` [Ribavirin] + CCCCNC(=O)OCC#CI [3-iodo-2-propynyl butylcarbamate (IPBC)]: the growth yield is 89.9 ± 6.3% (40 h) and 92.7 ± 2.9% (72 h).

`CC(C)COCC(CN(Cc1ccccc1)c1ccccc1)N1CCCC1` (stereo not drawn) [Bepridil hydrochloride] + CCCCNC(=O)OCC#CI [3-iodo-2-propynyl butylcarbamate (IPBC)]: the growth yield reads like this: (40 h) 56.5 ± 1.6%; (72 h) 94.39 ± 0.63%.

As to `NS(=O)(=O)c1cc2c(cc1Cl)N=CNS2(=O)=O` [Chlorothiazide] + CCCCNC(=O)OCC#CI [3-iodo-2-propynyl butylcarbamate (IPBC)], the growth yield (40 h) amounted to 102.6 ± 0.32% and the growth yield (72 h) was determined as 106 ± 2.8%.

In the case of `Cn1c(=O)c2[nH]cnc2n(C)c1=O` [Aminophylline] + CCCCNC(=O)OCC#CI [3-iodo-2-propynyl butylcarbamate (IPBC)], the growth yield runs as follows: (40 h) 93.7 ± 11%; (72 h) 93.2 ± 7%.

Regarding `CS(=O)(=O)c1ccc(C2=C(c3ccccc3)C(=O)OC2)cc1` [Rofecoxib] + CCCCNC(=O)OCC#CI [3-iodo-2-propynyl butylcarbamate (IPBC)], the growth yield runs as follows: (40 h) 91.7 ± 11%; (72 h) 96.4 ± 6.6%.

With `CN(C)CCC=C1c2ccccc2CCc2ccccc21` [Amitryptiline hydrochloride] + CCCCNC(=O)OCC#CI [3-iodo-2-propynyl butylcarbamate (IPBC)], the growth yield amounted to 80.7 ± 2.2% (40 h) and 95.1 ± 2% (72 h).

Take `Cc1ccnc2c1NC(=O)c1cccnc1N2C1CC1` [Nevirapine] + CCCCNC(=O)OCC#CI [3-iodo-2-propynyl butylcarbamate (IPBC)]: the growth yield (40 h) came to 89.7 ± 4.6% and the growth yield (72 h) is 91.3 ± 2.8%.

On to `NC(=O)OCCCc1ccccc1` [Phenprobamate] + CCCCNC(=O)OCC#CI [3-iodo-2-propynyl butylcarbamate (IPBC)], for which the growth yield by setting is: (40 h) 106 ± 5.6%; (72 h) 104.5 ± 0.42%.

For `CN1C(C(=O)Nc2ccccn2)=C(O)c2sccc2S1(=O)=O` [Tenoxicam] + CCCCNC(=O)OCC#CI [3-iodo-2-propynyl butylcarbamate (IPBC)], the growth yield by setting is: (40 h) 83.1 ± 2.1%; (72 h) 94.08 ± 0.1%.

With `Cc1ncc([N+](=O)[O-])n1CC(O)CCl` (stereo not drawn) [Ornidazole] + CCCCNC(=O)OCC#CI [3-iodo-2-propynyl butylcarbamate (IPBC)], the growth yield came to 98.16 ± 0.32% (40 h) and 105 ± 1.7% (72 h).

Turning to `COc1cc2c(cc1OC)C(=O)C(CC1CCN(Cc3ccccc3)CC1)C2` (stereo not drawn) [Donepezil hydrochloride] + CCCCNC(=O)OCC#CI [3-iodo-2-propynyl butylcarbamate (IPBC)], the growth yield (40 h) was found to be 85.9 ± 2.1% and the growth yield (72 h) turned out to be 87.3 ± 2.3%.

As for `CCCCC(CC)CN1CN(CC(CC)CCCC)CC(C)(N)C1` (stereo not drawn) [Hexetidine] + CCCCNC(=O)OCC#CI [3-iodo-2-propynyl butylcarbamate (IPBC)], the growth yield (40 h) was 28.6 ± 8.6%.

Consider `O=C(CCCN1CCC(O)(c2ccc(Br)cc2)CC1)c1ccc(F)cc1` [Bromperidol] + CCCCNC(=O)OCC#CI [3-iodo-2-propynyl butylcarbamate (IPBC)], for which the growth yield worked out at 64.3 ± 2.1% (40 h) and 87.3 ± 1.5% (72 h).
